# Source: PubChem BioAssay AID2546 (National Center for Advancing Translational Sciences (NCATS), 2010)
# Among all 310,000 compounds or so, about 11,000 (3.5%) were called active. Inconclusive results, whose numbers are uncertain, are shown with a selection of clear calls. Calls come from the whole dose curve; as a rule, active = well fitted inhibition curve with a large enough effect; inconclusive = small, poorly fitted or top-dose-only effect, or effect the other way; inactive = flat fitted curve, though single readings scatter. Potencies of inconclusive entries are left out as doubtful fits.
# Assay: VP16 counterscreen qHTS for inhibitors of ROR gamma transcriptional activity;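 note: Gal4-VP16 expression switched on by copper sulfate through the metallothionein promoter; nearly all actives have a fitted effect of over 50% in size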
# Conditions: Drosophila S2 Gal4-VP16 UAS-luciferase, luminescence, 20 h; activity, negative = inhibition: at 53.6 µM (top of the series)
# % is set by controls: 0 for no effect and ±100 for the full control effect; potency is the fitted concentration of half-maximal effect; tags give direction and shape of the fitted curve.
SMILES,Potency,"activity, negative = inhibition"
Cc1cc(Cl)n2c(nc3ccccc32)c1C#N,"inconclusive [inhibitor, single point]",
COC(=O)[C@@]1(Cc2ccc(F)cc2)[C@@H]2C(=CC(=O)[C@H]2CC(=O)C(=O)N(C)C)CN1C(=O)c1ccccc1,"inconclusive [inhibitor, single point]",
Cc1ccc(NC(=S)NNc2ncc(C(F)(F)F)cc2Cl)cc1,active: 11.2 µM,
CCOC(=O)C1=C(COC(=O)/C=C/c2cc(OC)c(OC)c(OC)c2)NC(=O)NC1C (stereo not given),"inconclusive [inhibitor, single point]",
COc1ccc2c(c1)c(C(=O)N/N=C/c1cn(C)c3ccccc13)c(C)n2C,"inconclusive [inhibitor, single point]",
COCCn1c(SCC(=O)Nc2ccc(OC)c(S(N)(=O)=O)c2)nc2ccccc21,"inconclusive [inhibitor, single point]",
CC1CCCCN1S(=O)(=O)c1ccc(C(=O)Nc2nnc(C3CC3)o2)cc1 (stereo not given),active: 0.316 µM,
O=C(Nc1nc(-c2ccccn2)cs1)c1cc(Cl)ccc1[N+](=O)[O-],active: 2.82 µM,
Cc1ccc(O)c(/C=N/NC(=O)Cc2ccc(Cl)cc2)c1,active: 0.631 µM,
Cc1oc(/C=N/NC(=O)CN(c2ccccc2Cl)S(C)(=O)=O)cc1Br,,inactive: -6.28%
CCOC(=O)c1c(NCC(C)C)c2ccccc2[nH]c1=O,"inconclusive [inhibitor, single point]",
C/C(CC(=O)NCc1ccccc1Cl)=N/NC(=O)c1ccccn1,,inactive: 9.59%
CC(C)c1cc(C(=O)OCC(=O)NC(=O)NCc2ccco2)c(O)c(C(C)C)c1,"inconclusive [inhibitor, single point]",
CC(C)(C)C(=O)Nc1cccc(-c2cc(-c3c(Cl)cccc3Cl)no2)c1,,inactive: 6.81%
N=c1c(C(=O)NCc2ccccc2)cc2c(=O)n3ccccc3nc2n1Cc1ccco1,"inconclusive [inhibitor, single point]",
COCc1cc(=O)[nH]c(Nc2nc(C)c3ccccc3n2)n1,"inconclusive [inhibitor, single point]",
Cc1ccc(NCc2nnc(SCC(=O)Nc3ncc(C)s3)n2Cc2ccco2)c(C)c1,"inconclusive [inhibitor, full curve, poor fit]",
CCOc1ccc2c(c1)[nH]c(=S)n2C,"inconclusive [inhibitor, single point]",
Fc1ccc(C2CC(c3cccs3)=NN2C(=S)Nc2ccccc2)cc1 (stereo not given),,inactive: -10.5%
Cc1[nH]n(-c2ccccc2)c(=O)c1/C=N/NC(=O)c1cccc([N+](=O)[O-])c1,active: 2.51 µM,
COCCCN=C(c1ccco1)n1c(=S)nc(-c2ccco2)n(CCCOC)c1=S,"inconclusive [inhibitor, single point]",
O=C(NNS(=O)(=O)c1ccc2ccccc2c1)c1cc(-c2ccccn2)nc2ccccc12,active: 7.94 µM,
CCOc1cccc(-c2nc3cc(C)ccc3o2)c1,"inconclusive [inhibitor, single point]",
Cc1ccc(N(C(=O)c2ccccn2)C(C(=O)NC2CCCCC2)c2ccncc2)cc1 (stereo not given),,inactive: -1.38%
COc1ccc(CNc2ccc(C(=O)O)cc2)cc1,active: 0.631 µM,

SMILES,Potency,"activity, negative = inhibition"
O=C(Nc1ccccc1)Nc1ccccc1,"inconclusive [activator, single point]",
Cc1cc(C)c2oc(-c3ccc(C)c(NC(=S)NC(=O)c4cccs4)c3)nc2c1,"inconclusive [inhibitor, single point]",
Nc1nnnn1NCc1cccc(OCc2ccccc2)c1,"inconclusive [inhibitor, single point]",
CCOC(=O)CCS(=O)(=O)c1nc(-c2ccccc2)cc(C(F)(F)F)n1,"inconclusive [inhibitor, single point]",
COC(=O)/C=C(\C)N=Nc1c(O)[nH]c2ccccc12,,inactive: -9.56%
Cc1ccc(C(=O)CCNc2cccc(Br)c2)o1,"inconclusive [inhibitor, single point]",
COc1cccc(/C=C2\SC(=S)N(CCCC(=O)N3CCCCC3)C2=O)c1,active: 12.6 µM,
CCOC(=O)Cc1csc(NC(=S)NC(=O)c2ccc(Cl)cc2)n1,"inconclusive [inhibitor, single point]",
CCOCCCNC(=S)NCCc1ccccc1,active: 12.6 µM,
O=C(CN1CCN(c2ccc(F)cc2)CC1)c1cccs1,,inactive: 20.1%
Cc1ccc(NC(=O)C(C)c2cccc(C(=O)c3ccccc3)c2)cc1O (stereo not given),"inconclusive [inhibitor, single point]",
Cc1ccc2c(c1)CCCN2C(=O)c1cc2ccccc2oc1=O,,inactive: 2.07%
COC(=O)N1[C@H]2CC[C@@]3(C)CC(=O)C[C@]1(C)C3c1ccccc12,,inactive: -10.2%
COc1ccc(CC(=O)NNc2ncnc3c2cnn3-c2ccc(C)cc2)cc1,"inconclusive [inhibitor, single point]",
COc1ccc(S(=O)(=O)Nc2cccc(-c3ccc(N4CCCCCC4)nn3)c2)c(OC)c1,,inactive: 26.6%
O=S(=O)(Nc1ccccc1)c1ccc(Oc2ncc(C(F)(F)F)cc2Cl)cc1,"inconclusive [inhibitor, single point]",
O=C(N=Nc1c(O)[nH]c2ccccc12)c1ccc2c(c1)OCO2,"inconclusive [inhibitor, partial curve]",
O=[N+]([O-])c1ccc(/C=C/c2nc3ccc([N+](=O)[O-])cc3[nH]2)cc1,"inconclusive [inhibitor, partial curve, poor fit]",
Cc1ccc(Cl)cc1N1CCN(Cc2nc3ccsc3c(=O)[nH]2)CC1,"inconclusive [inhibitor, single point]",
CCOC(=O)Cn1c(=O)n(Cc2ccco2)c(=O)c2ccc(C(=O)NCCc3ccccc3)cc21,,inactive: -16.6%
COc1ccc(S(=O)(=O)N2c3ccccc3OCC2c2ccccc2)cc1 (stereo not given),"inconclusive [inhibitor, single point]",
O=C(CCN1CCc2ccccc2C1)c1ccc2c(c1)OCCO2,active: 4.47 µM,
CCNc1nc2c(c(=O)[nH]c(=O)n2C)n1CC(C)C,,inactive: 0.728%
CC(/C=C/c1ccccc1)=N\NC(N)=S,active: 2.24 µM,
OCCN(Cc1ccccc1)c1ncnc2sccc12,"inconclusive [inhibitor, single point]",

SMILES,Potency,"activity, negative = inhibition"
Cc1c(N2C(=O)CSC2c2ccc([N+](=O)[O-])cc2)c(=O)n(-c2ccccc2)n1C (stereo not given),,inactive: -3.15%
CCOC(=O)N1CCN(S(=O)(=O)c2ccc(C(=O)N(CCCN(C)C)c3nc4ccc(Cl)cc4s3)cc2)CC1,"inconclusive [inhibitor, single point]",
Nc1ccc(Oc2ccc3c(c2)OCO3)cc1,"inconclusive [activator, full curve, poor fit]",
CCN(CC)C(=O)CSc1nc2ccccc2c(=O)n1CCC(=O)NCc1ccc(F)cc1,"inconclusive [inhibitor, single point]",
Cc1c(C(=O)O)sc2nc3n(c(=O)c12)CCC3,,inactive: 4.8%
Cc1ccc(/C=N/Nc2ccnc3cc(Cl)ccc23)c(C)c1,active: 8.91 µM,
Cc1cccc(-c2nnc(SCc3ccccc3)o2)c1,,inactive: -28.5%
COc1ccc(/C=C2/N=C(SCC(=O)Nc3cc(C)on3)N(c3ccccc3)C2=O)cc1,"inconclusive [inhibitor, single point]",
Cc1ccc(-n2ccc(=O)c(C(=O)Nc3ccc(S(=O)(=O)Nc4nccs4)cc3)n2)cc1,,inactive: -10.7%
CCN1CCN(Cc2cc(=O)oc3ccc(C)cc23)CC1,,inactive: -4.11%
Cc1ccc(Nc2cc(C)nn2-c2nc(C)cc(=O)[nH]2)cc1,active: 0.631 µM,
COc1cc2c(cc1NC(=O)COC(=O)[C@@H](NC(=O)c1ccccc1)C(C)C)oc1ccccc12,"inconclusive [inhibitor, single point]",
CCN1CN(CCc2ccccc2)CNC1=S,"inconclusive [inhibitor, single point]",
Cc1ccc(OCCn2cc(/C=N/NC(=O)c3ccncc3)c3ccccc32)cc1,active: 11.2 µM,
Cc1ccc(NC(=O)COc2ccc(-c3nnco3)cc2)cc1S(=O)(=O)N1CCOCC1,,inactive: 3.89%
Cc1ccc(NC(=S)N/N=C/c2c(C)nn(-c3ccccc3)c2N2CCCC2)cc1,active: 0.1 µM,
O=C(Nc1ccccc1F)NC1CC1,"inconclusive [activator, single point]",
Cc1cc(OCC(=O)NC(C)(C)C)ccc1Cl,,inactive: 6.52%
N#C/C(=C/c1ccncc1)c1nc2ccccc2s1,"inconclusive [activator, full curve]",
CCn1c(C)nc2cc(-c3nnc(-c4c(-c5ccccc5)noc4C)o3)ccc21,active: 5.01 µM,
Cc1cc(C)cc(C(=O)NC(=S)Nc2ccc(Cc3ccncc3)cc2)c1,"inconclusive [inhibitor, single point]",
CNC(=S)NNC(=O)c1cccn(Cc2ccc(Cl)cc2Cl)c1=O,,inactive: -4.36%
O=C(N=C1N=C2C=CC=CN2Cc2ccccc21)c1ccc(S(=O)(=O)N2CCCC2)cc1,,inactive: -10.8%
COc1cccc(SCc2noc(C(=O)NCC3CCCO3)c2C(=O)O)c1 (stereo not given),"inconclusive [inhibitor, single point]",
CC(=O)Nc1ccc(C(=O)Nc2ccc(S(=O)(=O)N3CCOCC3)cc2)cc1,,inactive: 3.12%
